Assay results published in the supplement of paper PMC3334620.
Whole data set: some 33,000 sequences, median “E-score (-0.5 to 0.5)” near -0.013, cut for the highest 2% near 0.3. The list shows a part of the results.

These sequences were tested against T1, Msn1 (UniProt P22148) (assay: PBM E-score (8-mer binding enrichment) (E-score (-0.5 to 0.5)); higher = stronger / more preferred TF binding; most listed sequences are background and not binding sites). Settings: protein concentration: 200 nM; construct: GST-full length.
T1 sequence: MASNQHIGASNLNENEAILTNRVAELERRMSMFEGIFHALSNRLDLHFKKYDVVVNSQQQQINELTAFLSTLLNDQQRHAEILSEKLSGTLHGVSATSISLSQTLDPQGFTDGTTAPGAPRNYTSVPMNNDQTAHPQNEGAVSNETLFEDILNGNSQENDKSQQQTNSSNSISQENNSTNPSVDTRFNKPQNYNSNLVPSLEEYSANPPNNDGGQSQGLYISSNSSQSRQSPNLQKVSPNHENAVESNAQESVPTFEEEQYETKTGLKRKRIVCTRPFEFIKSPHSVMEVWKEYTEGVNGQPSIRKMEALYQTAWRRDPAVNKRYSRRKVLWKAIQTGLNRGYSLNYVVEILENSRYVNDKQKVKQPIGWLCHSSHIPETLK
Description: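 Universal 'all 10-mer' protein binding microarrays (Agilent AMADID 015681) probed with GST-tagged S. cerevisiae TFs (full-length or DBD) made by in vitro transcription/translation (PURExpress), about 100-200 nM. Bound TF was detected with fluorescent anti-GST. Each ungapped 8-mer (which stands for itself and its reverse complement) is scored by the PBM enrichment score (E-score), a modified Wilcoxon-Mann-Whitney statistic from -0.5 to +0.5, computed with the Universal PBM Analysis Suite. Scale: above 0.35 generally sequence-specific binding.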

Row | Sequence | PBM E-score
1 | GCGCTTAA | -0.139
2 | CGACTTCC | -0.11
3 | TCGTGGCA | -0.0121
4 | AGGTCGCG | 0.0713
5 | ACCTACCA | -0.0797
6 | CGAGAGGC | -0.138
7 | GCGTCTAA | 0.0281
8 | AAATACTC | 0.0436
9 | ATGGCGGG | -0.0236
10 | CGCTAGAA | -0.232
11 | AGTTGAGG | -0.0851
12 | ACTTATCC | 0.095
13 | AAGGTTTC | -0.0588
14 | GCCTGGAC | -0.0678
15 | ACCTGCTA | -0.0802
16 | GAGCTTGA | -0.0834
17 | CGGAACCC | 0.0374
18 | AGAGAAGG | -0.306
19 | ATTGAATC | 0.0318
20 | ATTTCACG | 0.0828
21 | AGACTAAG | 0.0762
22 | TCTTCTCA | -0.139

Row | Sequence | PBM E-score
23 | CGCGGGAG | -0.238
24 | ATTAAAAC | 0.156
25 | GCGCCAAC | 0.0698
26 | ACCAGAGT | -0.193
27 | AGAGTCCT | -0.0894
28 | GATCCTGC | -0.042
29 | CACTTATG | 0.092
30 | GACCCAGA | -0.039
31 | CCCGAAGC | 0.0581
32 | TACTGCCA | 0.124
33 | AGTGTACC | -0.0146
34 | GCCGGCGC | 0.0222
35 | CTGGTTCC | -0.169
36 | CTTTTTTC | 0.178
37 | CCGATGAA | 0.0935
38 | TAGCCCGA | 0.286
39 | ATGCGCCG | 0.195
40 | AGTGCGCA | 0.0141
41 | CAGGAGCC | -0.277
42 | ACTACGAT | 0.0187
43 | GTGGCACA | -0.116
44 | AGGTTGGC | -0.309

Row | Sequence | PBM E-score
45 | TGATTCCA | -0.0819
46 | ACACCTTA | 0.133
47 | ATGCGCTC | -0.119
48 | CACATGTC | 0.431
49 | ATTGTCGA | 0.144
50 | ACATAAGA | 0.146
51 | AATGCAGG | 0.0132
52 | AGATTCTC | -0.158
53 | AACAATAG | -0.0379
54 | CTGATCAG | -0.047
55 | GCACTTGA | 0.0677
56 | CGTATCAA | 0.0969
57 | ATCACGAC | 0.117
58 | CAATTCCG | 0.00583
59 | GACAGACC | 0.0373
60 | AACAGACA | 0.295
61 | AACAGCAG | -0.0819
62 | AGATGCAA | -0.212
63 | AAGACTGC | -0.0856
64 | ACACAGCA | 0.0778
65 | AGCGACTG | -0.127
66 | TAAATAGA | -0.163

Row | Sequence | PBM E-score
67 | CAGGAGCA | -0.122
68 | GCGGCCGA | -0.0302
69 | CATCGTCC | -0.0789
70 | ATCACACG | 0.0254
71 | ATTCTGAA | 0.0386
72 | CGGTTTGA | -0.00161
73 | CACCGCGC | -0.137
74 | AAGTTTAG | 0.103
75 | AGGGTTTG | -0.0242
76 | AGCCTCAG | -0.251
77 | CCGAGCGG | -0.119
78 | AGGAATCG | 0.00779
79 | CATGGTGC | -0.0558
80 | GTCATTTA | 0.156
81 | ACTTAGGG | -0.0588
82 | CGGTTTGC | -0.192
83 | AAAGATTG | 0.0201
84 | GGGCGGCA | -0.0793
85 | CTGAATCC | 0.0447
86 | GGATGAGA | -0.115
